Patent US10300036B2, “Compositions and methods for treating and preventing lung injury” (ARIZONA BOARD OF REGENTS on behalf of THE UNIVERSITY OF …, priority 2015, dated 2019)
Where two headings read alike, the source gives them in different places.

System: NRF2 transcriptional activity
[1] = H1299, 16 h, SF 5 μM, tBHQ 50 μM, As(III) 5 μM, bixin 40 μM

| Compound | NRF2 transcriptional activity, KEAP1-C151S cells [1] | NRF2 transcriptional activity, KEAP1-WT cells [1] | NRF2 transcriptional activity, KEAP1-WT cells |
| --- | --- | --- | --- |
| C[S+]([O-])CCCCN=C=S (stereo not shown) [SF, sulforaphane] | inhibited | enhanced |  |
| CC(C)(C)c1cc(O)ccc1O [tBHQ, tert-butylhydroquinone] | inhibited | enhanced |  |
| COC(=O)/C=C/C(C)=C\C=C\C(C)=C\C=C\C=C(C)\C=C\C=C(C)\C=C\C(=O)O [bixin, Bixin] | inhibited | enhanced |  |
| sodium arsenite [As(III)] |  |  | enhanced |
